Results reported in PubChem BioAssay AID720542 (National Center for Advancing Translational Sciences (NCATS), 2013).
In all, about 360,000 compounds went through this assay and about 740 (0.21%) were called active. This list was built around the results that the source calls inconclusive (neither active nor inactive); the mix of calls is not that of the screen. Calls follow the shape of the dose curve; as a rule, active = well fitted inhibition curve with a large enough effect; inconclusive = small, poorly fitted or top-dose-only effect; inactive = no such curve, though single readings can be large or run the other way. Potencies of inconclusive entries are left out as doubtful fits.

Tested on: Plasmodium falciparum AMA1 (3D7) - RON2 peptide interaction
Test: qHTS for Inhibitors of AMA1-RON; Towards Development of Antimalarial Drug Lead: Primary Screen; also: nearly all actives have a fitted effect of over 45% in size;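 as to activity change, negative = inhibition: 0% = vehicle wells and -100% = peptide control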
Conditions: AlphaScreen AMA1-biotinylated RON2 peptide binding; activity change, negative = inhibition: at 58.2 µM (top of the series) unless noted
Summary of the method: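 AMA1 (3D7) with his tag at 25 nM final met compounds first, then biotinylated RON2 peptide at 25 nM; detection used donor plus acceptor beads, 10 µg/mL apiece, read by AlphaScreen after 30 min at room temperature.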
Potency is read from the fitted curve at half-maximal effect; tags tell the direction and shape of the fitted curve.

Row | SMILES | Potency | activity change, negative = inhibition
1 | CC(C)[C@H](NC(=O)c1ccccc1)C(=O)N1CCc2ccccc21 | inconclusive [inhibitor, full curve, poor fit] | –
2 | O=[N+]([O-])c1ccccc1/C=C/C=N/Nc1ccc(S(=O)(=O)Nc2ccc(Cl)cc2)cc1[N+](=O)[O-] | inconclusive [inhibitor, full curve, poor fit] | –
3 | O=C(CCCSc1nnc(Nc2ccccc2F)s1)N1CCOCC1 | inactive | –
4 | O=C(CSC1CN(C(c2ccccc2)c2ccccc2)C1)N/N=C/c1ccccc1 | inconclusive [inhibitor, partial curve] | –
5 | COc1ccc(NC(=O)CN(C)C(=O)c2cc(-c3ccc(OC)cc3)nc3ccccc23)cc1 | inactive | –
6 | CCOC(=O)C1=C(C)N(c2ccccc2)C(=O)/C1=C\c1cccs1 | inactive | –
7 | O=C(c1ccc(F)cc1)n1ccc(-c2cnc(-c3ccccc3)s2)n1 | inactive | –
8 | COc1ccc(NC(=O)N2CCCc3ccccc32)cc1OC | inactive | –
9 | C[C@H]1COC2=C1C(=O)C(=O)c1c2ccc2c1CCCC2(C)C | active: 28.2 µM | –
10 | Cc1ccc(NC2=CC(=O)CC(c3ccccc3)C2)cc1 (configuration not stated) | inactive | –
11 | Cc1cc(N2CCCC2=O)cc(C)c1CN1C(=O)c2ccccc2C1=O | inactive | –
12 | Cc1cc(NS(=O)(=O)c2ccc(Nc3nc(-c4sc(N)nc4C)cs3)cc2)no1 | inconclusive [inhibitor, single point] | –
13 | COC(=O)c1ccccc1NC(=O)COC(=O)CSCC(=O)N1CCOCC1 | inconclusive [inhibitor, full curve, poor fit] | –
14 | COc1ccc(-c2nc3ccccc3c(=O)n2N)cc1 | inactive | –
15 | O=[N+]([O-])c1cc(C(F)(F)F)ccc1NCCc1c[nH]c2ccccc12 | inconclusive [inhibitor, single point] | –
16 | Clc1ccccc1OCCCn1ccnc1 | inconclusive [inhibitor, partial curve] | –
17 | Clc1cccc(Cl)c1CN1CCN(c2ccccc2)CC1 | inconclusive [inhibitor, partial curve] | –
18 | Brc1ccc2[nH]c3c(c2c1)CCC3 | inconclusive [inhibitor, single point] | –
19 | Cc1onc(-c2c(Cl)cccc2Cl)c1C(=O)NNc1ccccc1 | inconclusive [inhibitor, partial curve] | –
20 | O=C(O)CCC(=O)Nc1ccc(F)cc1 | inconclusive [inhibitor, partial curve] | –
21 | Cc1cc(C)c(OCCCCN(C)Cc2ccccc2)c(C)c1 | inconclusive [inhibitor, single point] | –
22 | CC[C@]12c3[nH]c4ccc(Cl)cc4c3CCN1C(=O)[C@@H](CC(=O)NCc1cccc(C(F)(F)F)c1)C[C@@H]2C(=O)N1CCN(C(=O)c2ccco2)CC1 | inactive | –
23 | Cc1onc(-c2ccc3c(c2)OCO3)c1-c1ccc2[nH]ccc2c1 | inactive | –
24 | O=C(/C=C1\NC2(CCCC2)Cc2ccccc21)C(=O)N/N=C/c1ccc(O)c(O)c1 | inconclusive [inhibitor, partial curve] | –

Row | SMILES | Potency | activity change, negative = inhibition
25 | CNC(=O)COC(=O)c1cc(-c2ccco2)nc2ccccc12 | inconclusive [inhibitor, single point] | –
26 | C=CC(=O)Nc1ccc(N(C)c2ccnc(Nc3ccc(N4CCN(C)CC4)cc3)n2)cc1 | inconclusive [inhibitor, partial curve] | –
27 | CCOC(=O)c1sc2cccc(Cl)c2c1N | inactive | –
28 | O=C(Cn1nnc(-c2ccccc2)n1)NCc1cccs1 | – | inconclusive: -11.9% [inhibitor]
29 | C[n+]1cc(-c2ccccc2)n2c1CCCCC2 | inactive | –
30 | O=C(c1ccco1)N1CCN(C/C=C/c2ccccc2)CC1 | inconclusive [inhibitor, full curve, poor fit] | –
31 | C=CCn1c(O)c(C2=c3ccccc3=NC2=O)sc1=Nc1ccc(O)cc1 | inconclusive [inhibitor, partial curve] | –
32 | CN1CCN(C2=CC3=CC(=C(C#N)C#N)CCC3CC2)CC1 (configuration not stated) | inconclusive [inhibitor, full curve, poor fit] | –
33 | Oc1ccccc1CN1CCN(C(c2ccccc2)c2ccccc2)CC1 | inconclusive [inhibitor, single point] | –
34 | O=C(c1cccc(Cl)c1)N1CCC2CC1c1cc(N3CCOCC3)ccc12 (configuration not stated) | inactive | –
35 | CC1=CC(C)(C)Nc2ccc(OC(=O)C(C)N3C(=O)c4ccccc4C3=O)cc21 (configuration not stated) | inconclusive [inhibitor, partial curve] | –
36 | COc1ccc(N2CCC(CNC(=O)Nc3ccccc3)C2)cc1 (configuration not stated) | inconclusive [inhibitor, partial curve] | –
37 | N#Cc1c(-c2ccccc2)c(-c2ccccc2)n(Cc2ccco2)c1NC(=O)c1cccs1 | inactive | –
38 | O=C(Oc1ccc(F)cc1C(=O)/C=C/c1cccs1)c1cccc([N+](=O)[O-])c1 | inconclusive [inhibitor, single point] | –
39 | C/C(=N/NC(=O)c1ccccc1)c1ccc(NC(=O)C(F)(F)F)cc1 | inactive | –
40 | COc1ccc(OCCSc2nc(C)nc3ccccc23)cc1 | inconclusive [inhibitor, single point] | –
41 | CC(C)C[C@@H](COc1ccccc1)N1CCN(CCc2ccccc2)CCC1=O | inconclusive [inhibitor, single point] | –
42 | CCCCc1ccc(S(=O)(=O)NC(=O)C2(C)CCN2C(=O)Cc2ccccc2)cc1 (configuration not stated) | inactive | –
43 | COc1cc(/C=C/c2ccc3cccc(OC)c3n2)c(OC(C)=O)c([N+](=O)[O-])c1 | inactive | –
44 | O=C(NC1CCCC1)C(c1ccccc1)N(C(=O)c1csnn1)c1ccccc1F (configuration not stated) | inactive | –
45 | O=[N+]([O-])c1cc(S(=O)(=O)N2CCCC2)ccc1N/N=C/c1ccccn1 | – | inconclusive: -20.9% [inhibitor]
46 | Brc1ccc(-c2nn3c(-c4ccccn4)nnc3s2)o1 | inconclusive [inhibitor, partial curve] | –
47 | Cn1cccc1C(=O)OCc1ccc(C(C)(C)C)cc1 | inconclusive [inhibitor, partial curve] | –
